# The list shows a part of the results.
# B1: GS13686A-pdi-553-26-553 (Parabacteroides distasonis) (protein)
# chain: NENPDKPTDDVNYNMNEPRLASTLRGGLIIEGNVEQRLKPLQIDFYSQMTVDGGGWGTKNYIQDDEWNNLVWEEYLKQIASINIVIRSLTEKDKDAYANTIAFARIWRVYVHTLAADKFGPMPFPAYEIVEANPPYKSLKDIYDEYFRELDAAINGFNDSAQPIFSDAGIDLIYKNDVSKWKRFANSLRLRLAVRLTEVDQEKCIAEANAAISSPAGLISDKADNAYMPPKADGSWGQDYNYTMFQITWSGPICMSKSVEKLVTNIGGVAWPQGVVNQTSGVAVSSVHPEKVDPRAPKIFQPGIENGDWKGLVYGPKAEEANTGIYQSKQCAELGFIIKDGYPYKSRPYDLFLSEEVHFLKAELYARGFIAGDAKSEYEAGVRASFATWGVTSEVDDYLTSTEKNEAGTSARYDDQQGAGNTALEKIITQKYIAGIPDLAQEGWNDKRRLNLPRLDVAVYRDQAVYNNNDKDILKSANFIKRMRYPTKESLINATEYEKGKSMLGGKGDIVSTPLWWDKNSNYCTSSK
# Experiments:
# Assay in all cases: glycan array binding signal (z-score within array); higher = stronger binding
# Settings in all cases: glycan notation: IUPAC condensed, linker removed
# [1] = target: GlcNAc(b1-2)Gal(b1-3)GalNAc
# Summary of the method: (§1)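 Arrays were curated from the Consortium for Functional Glycomics database, 3228 in total, and kept only where the protein sequence was available. Binding is expressed as a within-array Z-score. This score was averaged across arrays of the same protein sequence at different concentrations or buffers and across linkers, and negative values can be read as non-binding.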
# [2] = target: GlcNAc(b1-2)Man(a1-3)[GlcNAc(b1-2)Man(a1-6)]Man(b1-4)GlcNAc(b1-4)GlcNAc
# Summary of the method: as §1
# [3] = target: GlcNAc(b1-2)Man(a1-3)[GlcNAc(b1-2)Man(a1-6)]Man(b1-4)GlcNAc(b1-4)[Fuc(a1-6)]GlcNAc
# Summary of the method: as §1
# [4] = target: GlcNAc(b1-2)Man(a1-3)[GlcNAc(b1-4)][GlcNAc(b1-2)Man(a1-6)]Man(b1-4)GlcNAc(b1-4)GlcNAc
# Summary of the method: as §1
# [5] = target: GlcNAc(b1-2)Man(a1-3)[GlcNAc(b1-4)][GlcNAc(b1-2)Man(a1-6)]Man(b1-4)GlcNAc(b1-4)[Fuc(a1-6)]GlcNAc
# Summary of the method: as §1
# [6] = target: GlcNAc(b1-2)[GlcNAc(b1-4)]Man(a1-3)[GlcNAc(b1-2)Man(a1-6)]Man(b1-4)GlcNAc(b1-4)GlcNAc
# Summary of the method: as §1
# [7] = target: GlcNAc(b1-2)[GlcNAc(b1-4)]Man(a1-3)[GlcNAc(b1-4)][GlcNAc(b1-2)Man(a1-6)]Man(b1-4)GlcNAc(b1-4)GlcNAc
# Summary of the method: as §1
# [8] = target: GlcNAc(b1-2)[GlcNAc(b1-4)]Man(a1-3)[GlcNAc(b1-4)][GlcNAc(b1-2)[GlcNAc(b1-6)]Man(a1-6)]Man(b1-4)GlcNAc(b1-4)GlcNAc
# Summary of the method: as §1
# [9] = target: GlcNAc(b1-2)[GlcNAc(b1-4)]Man(a1-3)[GlcNAc(b1-4)][GlcNAc(b1-2)[GlcNAc(b1-6)]Man(a1-6)]Man(b1-4)GlcNAc(b1-4)[Fuc(a1-6)]GlcNAc
# Summary of the method: as §1
# [10] = target: GlcNAc(b1-2)[GlcNAc(b1-6)]Man(a1-6)[GlcNAc(b1-2)Man(a1-3)]Man(b1-4)GlcNAc(b1-4)GlcNAc
# Summary of the method: as §1
# [11] = target: GlcNAc(b1-2)[GlcNAc(b1-6)]Man(a1-6)[GlcNAc(b1-2)Man(a1-3)]Man(b1-4)GlcNAc(b1-4)[Fuc(a1-6)]GlcNAc
# Summary of the method: as §1
# [12] = target: GlcNAc(b1-2)[GlcNAc(b1-6)]Man(a1-6)[GlcNAc(b1-4)][GlcNAc(b1-2)Man(a1-3)]Man(b1-4)GlcNAc(b1-4)GlcNAc
# Summary of the method: as §1
# [13] = target: GlcNAc(b1-3)Fuc
# Summary of the method: as §1
# [14] = target: GlcNAc(b1-3)Gal
# Summary of the method: as §1
# [15] = target: GlcNAc(b1-3)Gal(b1-3)GalNAc
# Summary of the method: as §1
# [16] = target: GlcNAc(b1-3)Gal(b1-4)Glc
# Summary of the method: as §1
# [17] = target: GlcNAc(b1-3)Gal(b1-4)GlcNAc
# Summary of the method: as §1
# [18] = target: GlcNAc(b1-3)Gal(b1-4)GlcNAc(b1-2)Man(a1-3)[GlcNAc(b1-3)Gal(b1-4)GlcNAc(b1-2)Man(a1-6)]Man(b1-4)GlcNAc(b1-4)GlcNAc
# Summary of the method: as §1
# [19] = target: GlcNAc(b1-3)Gal(b1-4)GlcNAc(b1-2)Man(a1-3)[GlcNAc(b1-3)Gal(b1-4)GlcNAc(b1-2)Man(a1-6)]Man(b1-4)GlcNAc(b1-4)[Fuc(a1-6)]GlcNAc
# Summary of the method: as §1
# [20] = target: GlcNAc(b1-3)Gal(b1-4)GlcNAc(b1-2)[GlcNAc(b1-3)Gal(b1-4)GlcNAc(b1-6)]Man(a1-6)[GlcNAc(b1-3)Gal(b1-4)GlcNAc(b1-2)Man(a1-3)]Man(b1-4)GlcNAc(b1-4)GlcNAc
# Summary of the method: as §1
# [21] = target: GlcNAc(b1-3)Gal(b1-4)GlcNAc(b1-3)Gal(b1-4)GlcNAc
# Summary of the method: as §1
# [22] = target: GlcNAc(b1-3)Gal(b1-4)GlcNAc(b1-3)Gal(b1-4)GlcNAc(b1-2)Man(a1-3)[GlcNAc(b1-3)Gal(b1-4)GlcNAc(b1-3)Gal(b1-4)GlcNAc(b1-2)Man(a1-6)]Man(b1-4)GlcNAc(b1-4)GlcNAc
# Summary of the method: as §1
binder,measurement,setting,value
B1,glycan array binding signal (z-score),[1],-0.335
same,glycan array binding signal (z-score),[2],-0.274
same,glycan array binding signal (z-score),[3],-0.3
same,glycan array binding signal (z-score),[4],-0.205
same,glycan array binding signal (z-score),[5],0.181
same,glycan array binding signal (z-score),[6],-0.129
same,glycan array binding signal (z-score),[7],-0.077
same,glycan array binding signal (z-score),[8],-0.24
same,glycan array binding signal (z-score),[9],-0.179
same,glycan array binding signal (z-score),[10],-0.285
same,glycan array binding signal (z-score),[11],0.175
same,glycan array binding signal (z-score),[12],0.141
same,glycan array binding signal (z-score),[13],-0.21
same,glycan array binding signal (z-score),[14],-0.394
same,glycan array binding signal (z-score),[15],-0.329
same,glycan array binding signal (z-score),[16],-0.215
same,glycan array binding signal (z-score),[17],-0.296
same,glycan array binding signal (z-score),[18],-0.085
same,glycan array binding signal (z-score),[19],-0.069
same,glycan array binding signal (z-score),[20],0.632
same,glycan array binding signal (z-score),[21],-0.028
same,glycan array binding signal (z-score),[22],0.227

# Source: the supplement of paper PMC8728848
